Reference: PMC6919601, “Identification of Plasmodium dipeptidyl aminopeptidase allosteric inhibitors by high throughput screening” (PLoS ONE, 2019)
Where “and” joins values, the source holds several entries; their conditions need not be identical. Equal values may be shown once. The whole screen tested about 110,000 compounds, of which about 230 (0.21%) showed an effect of 50% or more. The list shows a part of the results.

biological target: DPAP1 (Plasmodium falciparum, UniProt Q8IIJ9); experiment: primary screen, percent inhibition; read by cleavage of a fluorogenic dipeptide substrate; higher = more effect of the substance; design: species or system P. falciparum D10 trophozoite lysates; single well
Sequence (Q8IIJ9 whole entry, looked up): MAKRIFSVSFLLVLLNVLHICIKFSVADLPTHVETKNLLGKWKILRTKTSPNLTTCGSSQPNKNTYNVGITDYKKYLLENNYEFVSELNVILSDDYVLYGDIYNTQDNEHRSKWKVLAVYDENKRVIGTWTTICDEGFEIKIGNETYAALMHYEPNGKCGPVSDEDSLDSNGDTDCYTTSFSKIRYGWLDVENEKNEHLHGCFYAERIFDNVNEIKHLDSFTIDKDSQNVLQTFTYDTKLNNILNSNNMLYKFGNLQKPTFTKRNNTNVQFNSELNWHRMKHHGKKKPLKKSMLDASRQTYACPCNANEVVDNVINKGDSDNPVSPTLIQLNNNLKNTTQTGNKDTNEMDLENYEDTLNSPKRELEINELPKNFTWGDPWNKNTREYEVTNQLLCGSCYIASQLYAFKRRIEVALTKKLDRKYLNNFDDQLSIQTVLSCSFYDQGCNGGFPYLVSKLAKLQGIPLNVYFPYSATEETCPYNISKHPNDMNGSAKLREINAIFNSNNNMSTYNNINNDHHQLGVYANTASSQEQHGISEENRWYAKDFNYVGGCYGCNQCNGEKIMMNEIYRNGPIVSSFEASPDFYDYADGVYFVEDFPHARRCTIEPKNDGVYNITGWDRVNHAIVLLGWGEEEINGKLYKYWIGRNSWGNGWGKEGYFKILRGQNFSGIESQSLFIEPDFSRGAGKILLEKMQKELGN
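Note: 30 min substrate incubation versus DMSO and 10 µM JCP410 controls.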

| SMILES | % Inhibition @ 10 uM |
| --- | --- |
| Cc1ccsc1C1CC(=O)NC(SCC(N)=O)=C1C#N (centres unmarked) | 0.121% |
| O=C(Cc1ccccc1Cl)N1CCC(c2nc(O)c3nnn(Cc4ccccc4)c3n2)CC1 | 0.558% |
| CCCCC1CCC(c2nc(-c3ccc(Br)cc3)no2)CC1 (centres unmarked) | 6.06% |
| Cc1sc(NC(=O)C2CCCCC2C(=O)O)c(C(N)=O)c1-c1ccc(C(C)(C)C)cc1 (centres unmarked) | 17% |
| COc1ccc(CC(=O)N2CCc3ccccc3C2)cc1 | -1.62% |
| COCCCNC(=O)C1CC(=O)N(CCc2ccccc2)C1 (centres unmarked) | 3.04% |
| Cc1ccc(-n2nc(C)c(/C=N/c3ccc4[nH]c(C)nc4c3)c2O)cc1 | 2.69% |
| C=CCNc1oc(COc2cccc(Cl)c2)nc1C#N | 2.46% |
| CC(C)(C)OC(=O)NCC12C=CC(O1)C1C(=O)N(Cc3ccccc3)C(=O)C12 (centres unmarked) | 1.7% |
| COc1ccc(/C=C(\C#N)C(=O)Nc2nccs2)cc1 | 1.37% |
| COc1ccc(CNc2nc(-c3ccco3)nn2S(=O)(=O)c2ccc(Cl)cc2)cc1 | -6.98% |
| CC1CCN(c2nc3ccc(C(=O)c4ccccc4)cc3n3cnnc23)CC1 | 1.4% |
| O=C(CCN1C(=O)c2ccccc2Sc2ncccc21)NCCCc1ccccc1 | -8.19% |
| CCOc1ccc(C(=O)N(Cc2ccc(C)o2)C2CCS(=O)(=O)C2)cc1 (centres unmarked) | 8.19% |
| COc1ccc(-c2cc(C(F)F)n3ncc(C(=O)N4CCN(Cc5ccccc5)CC4)c3n2)cc1 | 0.778% |
| Cc1onc(-c2ccccc2Cl)c1C(=O)NCCNC(=O)c1c(-c2ccccc2Cl)noc1C | 0.331% |
| CCN1C(=O)C(=CNc2ccc(Cl)cc2C(=O)c2ccccc2)C(=O)N(CC)C1=O | -0.898% |
| CCN1CCN(Cc2ccc(F)c(Br)c2)CC1 | 2.33% |
| Cc1nc2c(C(=O)N3CCCCC3)cnn2c(O)c1Cc1ccccc1F | -3.36% |
| CCOc1ccc(CCNC(=O)c2ccc3nc(CC)c(CC)nc3c2)cc1OCC | 3.26% |
| CCOc1ccc(NC(=O)c2c(NC(=O)CC)sc3c2CCC(C)C3)cc1 (centres unmarked) | 2.13% |
| COc1ccc(/C=C2\C(=O)N(c3ccccc3)C(c3ccccc3)S2(=O)=O)cc1 (centres unmarked) | 2.38% |
| Nc1nc(CS(=O)(=O)c2ccc(Br)cc2)cs1 | 2.6% |
| CC(NC(=O)Cn1ncn2cccc2c1=O)c1ccccc1 (centres unmarked) | -7.17% |
| COc1cc(OC)cc(-c2cc3nc(C)c(CCC(=O)NCc4ccc5c(c4)OCO5)c(C)n3n2)c1 | 1.26% |

| SMILES | % Inhibition @ 10 uM |
| --- | --- |
| CCCCN(CC)C(=O)C(C(=O)c1ccc(F)cc1)n1ccccc1=O (centres unmarked) | -6.71% |
| Cc1sc(NC(=O)c2ccc(F)cc2)c(C(=O)O)c1C | -2.89% and 2.64% |
| C/C(=N\O)c1ccc(OCCOc2ccc(C#N)cc2)cc1 | -8.3% |
| COC(=O)c1cccc(-c2ccc(/C=C3/NC(=O)N(Cc4ccccc4F)C3=O)o2)c1C | -1.81% |
| Cn1c(C(=O)NCCC2=CCCCC2)cc2oc3ccccc3c21 | -2.17% |
| CCOC(=O)c1c(C)nc2c(c1-c1ccc(Cl)cc1)C(=O)CC(C)(C)C2 | -1.77% |
| CCCC[C@H](NS(=O)(=O)c1ccccc1)C(=O)NCC#N | -3.97% |
| COc1ccc(OC)c(C(C)NC(=O)c2ccccc2Br)c1 (centres unmarked) | 14.1% |
| O=C(O)c1ccc2nc(N3CCCCC3)sc2c1 | 17.8% |
| CCn1nc(CC(=O)O)c2ccccc2c1=O | -4.71% |
| C=C(C)[C@@H]1CC=C(CN2CCN(c3ccccc3F)CC2)CC1 | -2.21% |
| COc1ccc(OC)c(C2=NOC(C(=O)N3CCC(C)CC3)C2)c1 (centres unmarked) | -2.16% |
| Nc1n[nH]c(-c2ccccc2Cl)n1 | 0.166% |
| Cc1cc(-c2ccccc2)[n+]2oc(C)cc2n1 | 3.61% |
| CCOc1cc(S(=O)(=O)NC2CC(C)(C)NC(C)(C)C2)c(C)cc1C | -1.36% |
| COc1cc2c(cc1OC)C(C)N(C(=S)NCc1ccccc1)CC2 (centres unmarked) | -7.23% |
| COc1ccc(-c2[nH]nc3c2C(c2cc(Cl)c(O)c(OC)c2)C(C#N)=C(N)O3)cc1 (centres unmarked) | 5.48% |
| CC(=O)c1cccc(NC(=O)c2ccncc2)c1 | -4.16% |
| CN1C(=O)/C(=C/c2ccc(F)cc2)C(=O)N(c2ccccc2)C1=O | 4.08% |
| CS(=O)(=O)C1=NN2C(=N)/C(=C\c3ccc(-c4ccccc4)o3)C(=O)N=C2S1 | 5.06% |
| Cc1ccc(O)c(C2=NN3C(C2)c2ccccc2OC3C(C)C)c1 (centres unmarked) | -1.68% |
| CC(=O)c1c(C)n(-c2ccc(C)cc2C)c2ccc(O)cc12 | 3.06% |
| COc1ccc2[nH]c3c(=O)n(CCCCC(=O)N(C)C4CCCCC4)c(=S)[nH]c3c2c1 | -5.76% |
| COc1ccccc1[C@H]1SC[C@@H](C(=O)O)N1C(C)=O | 2.09% |
| Cc1cc(-c2noc(-c3ccc(Br)o3)n2)c2ccccc2n1 | 32.2% |

| SMILES | % Inhibition @ 10 uM |
| --- | --- |
| Cc1ccc(NCN2C(=O)C3CCC(C)CC3C2=O)cc1 (centres unmarked) | -3.9% |
| Cc1nn(CC(=O)NCCCN2CCCC2=O)c(=O)c2cc3sccc3n12 | 3.4% |
| Cc1ccc2nc(NC(=O)C3CC4CCC3C4)sc2c1 (centres unmarked) | -2.22% |
| Fc1ccc(CN2CCN(C/C=C/c3ccccc3)CC2)c(F)c1 | -1.86% |
| CCC(C)(C)c1ccc(OCC(O)CN2CCOCC2)c(C(C)(C)CC)c1 (centres unmarked) | 3.16% |
| N#C/C(=C(/O)c1ccc(Br)cc1)c1nc2ccccc2s1 | 0.983% |
| Cn1c2ccccc2c2c(C(=O)NCCN3CCOCC3)cn(C3CCCC3)c(=O)c21 | -3.39% |
| C=CCSC1=C(C#N)C(c2ccc(OC)c(OC)c2)CC(=O)N1 (centres unmarked) | -5.34% |
| CCOc1ccc(OCCn2c(SCCOc3ccccc3)nc3c(N)ncnc32)cc1 | -4.02% |
| Cc1onc(-c2ccccc2)c1C(=O)NC1CCCCCCC1 | -4.18% |
| CCC(C)NC(=O)C1CCN(c2nnc(-n3c(C)ccc3C)s2)CC1 (centres unmarked) | 2.76% |
| CCOc1ccc(-c2nc(S)c3c(n2)Oc2cc(O)ccc2C3)cc1 | -0.883% |
| CC1=C(C#N)C(c2ccc(N(C)C)cc2)C2=C(O)CC(C)(C)CC2=N1 (centres unmarked) | 0.51% |
| CN1CCN(C(=O)CN(c2cccc(Cl)c2)S(=O)(=O)c2ccc(Cl)cc2)CC1 | 3.21% |
| C=CCNC(=O)/C(=C/c1ccccc1)NC(=O)c1ccc(Br)o1 | 8.23% |
| CCN(CC)CCNc1nc(/C=C/c2ccc(Cl)cc2)nc2cc3ccccc3cc12 | -6.83% |
| CCOC(=O)C1=C(C)N=c2s/c(=C\c3ccc(C)cc3)c(=O)n2C1c1ccc(OC)c(OC)c1 (centres unmarked) | 7.62% |
| COCCNC(=O)Cn1ncc2c(C)n(Cc3ccccc3F)c(C)c2c1=O | 4.4% |
| O=c1c2cnn(-c3ccc(F)cc3)c2ncn1Cc1ccc(Cl)cc1Cl | -1.75% |
| O=C1CC(N2CCCCCCC2)C(=O)N1c1ccc(Br)cc1 (centres unmarked) | -6.48% |
| CNC(=O)CCCCCN1C(=O)c2ccccc2C1=O | 2.01% |
| CC(C)CC(=O)Nc1ccc(S(=O)(=O)N2CCC(C)CC2)cc1 | -3.45% |
| CC(C)C[C@H](NC(=O)c1ccc(-c2cccc(O)c2)cc1)C(=O)NCC#N | 19.1% |
| Cc1cccc(C)c1OCc1nc2c3c4c(sc3ncn2n1)CCCC4 | 2.94% |
| COc1cc(C2C(C#N)=C(N)Oc3c2oc(CO)cc3=O)cc(OC)c1OC (centres unmarked) | 2.38% |

| SMILES | % Inhibition @ 10 uM |
| --- | --- |
| Cc1cc(=O)n(Cc2ccncc2)c2c1c(C)nn2-c1cccc(F)c1 | 1.27% |
| O=C(CC1c2ccccc2Oc2ccccc21)NCC1CCCO1 (centres unmarked) | -4.67% |
| CC(C)Cc1ccc(C(C)C(=O)Nc2ccccn2)cc1 (centres unmarked) | 2.34% |
| CCN(CC)C(=O)NCCN1C(=O)C2C3C=CC(C3)C2C1=O (centres unmarked) | -6.78% |
| CN(Cc1ccccc1)C(=O)CCNS(=O)(=O)c1ccc2nc(O)ccc2c1 | -5.85% |
| COc1ccc(C(=O)NCCn2cc(SCC(=O)N3CCCCC3)c3ccccc32)cc1 | 3.54% |
| CCOC(=O)C1=C(CN2CCCCC2)NC(=O)NC1c1ccc(Cl)cc1 (centres unmarked) | -1.72% |
| COc1ccc(/C=c2/sc3nc4c(C)c(C)ccc4n3c2=O)cc1 | -0.053% |
| C=CCn1c(SCC(=O)NCc2ccc3c(c2)OCO3)nc2sc3c(c2c1=O)CCC3 | -10.3% |
| CCN(CC)CC(O)Cn1c2ccccc2c2ccccc21 (centres unmarked) | -5.62% |
| Cc1ccc(-c2cc3c(nn2)-c2ccccc2C3=O)o1 | -0.736% |
| COc1ccc(C(=O)Nc2cc(C(F)(F)F)ccc2Cl)cc1OC | -2.03% |
| CC(CCc1ccccc1)NC(=O)C1CCCN(S(=O)(=O)c2ccc3nc(O)ccc3c2)C1 (centres unmarked) | -7.74% |
| CCOc1ccc(C2C3=C(O)CCCC3=NC(C)=C2C(=O)Nc2ccc(Br)cn2)cc1 (centres unmarked) | 2.7% |
| CC1=C(C(=O)OC2CCCC2)C(c2ccncc2)C2=C(O)CC(C)(C)CC2=N1 (centres unmarked) | 1.27% |
| COc1ccc2c(=O)c(-c3ccccc3)c(C)oc2c1C | -18.8% |
| CCn1cc(/C=C2\CCCC3=C2OC(N)=C(C#N)C3c2cn(CC)nc2C)c(C)n1 (centres unmarked) | -2.24% |
| Nc1c(Nc2ccc(C(=O)O)cc2)c2ccccc2oc1=O | -2.6% |
| Fc1ccccc1N1CCN(Cc2ccc3ccccc3c2)CC1 | 0.605% |
| Cc1ccsc1/C=C1/SC(N2CC(C)OC(C)C2)=NC1=O (centres unmarked) | 4.74% |
| Cc1cc(C)c2c(C)nn(-c3ccc(Br)cc3)c2n1 | -3.14% |
| O/N=C1\C2CCN(CC2)C1Cc1ccccc1O (centres unmarked) | -0.0648% |
| CCC(Cc1ccccc1)NC(=O)Cn1cccc1C(=O)c1ccccc1 (centres unmarked) | 1.15% |
